Measured values published in publication PMC12136788.
The other results are listed elsewhere or left out.

B1: chr8:141525804:141525805:+_ENSG00000104472_ENST00000220913|hu_hu|FALSE|FALSE (ssRNA)
RNA: GGGAGUUCUACAGUCCGACGAUCGUAGAAAAAUAUCUGAACAGUCAACUUUUCUUAAGACAAAAAUUCAAAUGUAACAUACUACCUAAACUAUAAAUUUAGCUAAAACUGAAUCGAGCUGUUUAUAAGAACUGAUUCCAAAAUCAACAGAGGAUUGAGCAUCA
B2: chr3:179287964:179287965:+_ENSG00000136518_ENST00000429709|hu_hu|hu_hu_hu_mus_True|1_8 (ssRNA)
RNA: GGGAGUUCUACAGUCCGACGAUCCUUGAGUGGUGAGAUGGCCUCCAUGUUCUCCCUGGGCACGCGGAGGGCAUUGGUGUCUAUGUAGUAGGUGGGCCCGCCCUGCUUGCCUUUGUCACCAUCAAUCUCCAUUAAUGUGCUUCCCAACAGAGGAUUGAGCAUCA
B3: chr3:102833055:102833056:+_ENSMUSG00000068823_ENSMUST00000029446|mus_hu|FALSE|FALSE (ssRNA)
RNA: GGGAGUUCUACAGUCCGACGAUCUUCAGUAGUAUUUGCUGAUUCUUCUUUUUCAGCACACGUUUCAAAGGAUGAAAGUUGCUAGUAUUAAAAAAAAGAGCGAGAGAAAAUGAUCUACCAAGCUAAUAAAGAAUACAACUGCUGCAACAGAGGAUUGAGCAUCA
B4: chr13:40293908:40293909:+_ENSG00000133103_ENST00000455146|hu_hu|FALSE|FALSE (ssRNA)
RNA: GGGAGUUCUACAGUCCGACGAUCUGCUUCGAUCUGAAACUGUAGCAUUUCCAGACGUCUGUCAGUGAAUUCAAAUAGAGCUAAUGUUGUCUUCAUCAUAUAUAGUGAAUUGACCAUGAAAGUGGCCAUGUCAGCUGUGCCUAACAACAGAGGAUUGAGCAUCA
B5: chr6:86333760:86333761:-_ENSG00000135316_ENST00000355238|hu_mus|hu_hu_hu_mus_True|28_28 (ssRNA)
RNA: GGGAGUUCUACAGUCCGACGAUCUUCCUCAAGAAUCUGCUCCUUGGUUUUACUCUUAGGAAUCGAGCCCACAAAAAGCCUAUUGUUGGCAACUGAGAUGCAGACACCAAUAUGUUUCCCGGAACGAAUUUCAUGAUUAUUAUACAACAGAGGAUUGAGCAUCA
B6: 79205409_79207752_2771_CDS_ENSMUSG00000039414_ENSMUST00000097281|mouse|control|control (ssRNA)
RNA: GGGAGUUCUACAGUCCGACGAUCACCAGUCCUGGACACGACAUCUCGAGCUGACUUCAACUUGUCAAAGCUGUAUUGGGCCAUUCGGGCAAUGAAAGAGGCUUCUCCCACCACCUGAGCCAUUCUUCCAAGGGCUUCCCCUGCCAACAGAGGAUUGAGCAUCA
B7: chr15:72338896:72338897:-_ENSG00000066933_ENST00000356056|hu_hu|FALSE|FALSE (ssRNA)
RNA: GGGAGUUCUACAGUCCGACGAUCGAUAUAUCCGUAAUGUAUGUUCAUUAUCUUCAAAGCGUCGUCUUCCUCCAUCAUUUAUAUUCAUAUUGGAUCCUGUCCCAUCAGCAUGGAUAGUAUAUGUUCAAAGUCGUGCAAACCAUUCAACAGAGGAUUGAGCAUCA
B8: chr1:63024871:63024872:-_ENSG00000116641_ENST00000251157|hu_hu|FALSE|FALSE (ssRNA)
RNA: GGGAGUUCUACAGUCCGACGAUCGUCCCCAAUUCGGACUGGGAACAGGUGUUCAUCCAGAGCAUUGACCAGAGCAAAAAAUUUGUCAAGAUAAGGAUCUUGUGUAUGGAUAGACGAAACAGCAACAACUUCAACAUUAAAAACCAACAGAGGAUUGAGCAUCA
B9: chr4:144460044:144460045:+_ENSG00000153147_ENST00000283131|hu_hu|FALSE|FALSE (ssRNA)
RNA: GGGAGUUCUACAGUCCGACGAUCUCGGUCCAUAGCCUGAAGAUCUACUUGGGGAUUCCAAUCAGAAUCAUACAAAAUUACUACAUCAGCAGUCGCAAGAUUGAUGCCAAGACCACCAGCACGCGUGCUUAACAUGAAAACAAACAACAGAGGAUUGAGCAUCA
B10: chr12:42180722:42180723:-_ENSMUSG00000036295_ENSMUST00000043884|mus_hu|mus_mus_mus_hu_True|18_48 (ssRNA)
RNA: GGGAGUUCUACAGUCCGACGAUCCUGUAGGAGAAGAAUCUGUGUGUUAGCUGGCAAUCUGGCUGGGAAAGUUAAAAGACCUAAAUCAUUACAGUCCACUGUAGAUGCUUCCAUAUAGAUGGAUCUCGGUGUAAACCAAGGCCUCAACAGAGGAUUGAGCAUCA
B11: chr18:12984129:12984130:+_ENSG00000085415_ENST00000262124|hu_mus|FALSE|FALSE (ssRNA)
RNA: GGGAGUUCUACAGUCCGACGAUCCUUUCUGCUAGCAGAAGUUCCAUUUAAUGAAUUUUGAAGAUUUGGAAUAUUUGAGCUCAGUGAAGGAUUUGAGUUUCCCAGCUGAGAACUCCCAUUUACUGGGCUCCCGUUACCUUUCAACAACAGAGGAUUGAGCAUCA
B12: chr8:96496865:96496866:-_ENSMUSG00000031751_ENSMUST00000053766|mus_hu|FALSE|FALSE (ssRNA)
RNA: GGGAGUUCUACAGUCCGACGAUCGCAGUCCAGUCAACACCAGAAGAGAUCAUACCUACAGUUAAAAUUUGCAGUGUUUCUAAGGGGAAGAGAAAUGUCACAUAGAAAGUAUUACAAAGAAGGAUUAAAUUUAUCAGCUGUCCACAACAGAGGAUUGAGCAUCA
B13: chr10:112764417:112764418:+_ENSG00000108061_ENST00000369452|hu_mus|FALSE|FALSE (ssRNA)
RNA: GGGAGUUCUACAGUCCGACGAUCAAUGGUGGAAAACUGAGAUGGACCUCCCACUGGAUAUAACUGGAAGCAAUUUCUAGCUAAGGUCAAGCUAUUCAAUUUUACAAGACUGGAUAAAAGACUCUCUGGUAGAGUAGAAAUGUUCAACAGAGGAUUGAGCAUCA
B14: 126435287_126435407_3139_3pUTR_ENSMUSG00000078429_ENSMUST00000105256|mouse|control|control (ssRNA)
RNA: GGGAGUUCUACAGUCCGACGAUCGUAACAGGGCUCCCAUGAAGCCACACUGGGCUUUGGUCACAUGGAGAACCAAGAAGCCAGAAAGGGACCUUAAAAUUCAAUCAACUCUGAGGCUCUUAUUGCUUAGUCAAGACCAGCCCUCAACAGAGGAUUGAGCAUCA

What follows are binders tested against T1, UNK ZnF1-3 (human, UniProt Q9C0B0 31-174) (assay: nsRBNS (natural sequence RNA bind-n-seq); RBNS binding buffer (assumed for nsRBNS): 25 mM Tris pH 7.5, 150 mM KCl, 3 mM MgCl2, 0.01% Triton X-100, 500 ug/ml BSA, 20 U/ml SUPERase-In, 4 C; UNK is unkempt and MSI1 is Musashi-1; names of the RNAs are library labels; protein concentration not given here; high values mean tight binding).
T1 sequence: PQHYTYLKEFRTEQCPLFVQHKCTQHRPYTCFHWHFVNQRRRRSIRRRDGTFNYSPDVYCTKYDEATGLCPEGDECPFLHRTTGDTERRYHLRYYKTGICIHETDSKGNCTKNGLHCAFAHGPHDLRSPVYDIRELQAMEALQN

| Binder | binding signal [enrichment R] |
| --- | --- |
| B1 | 0.907 |
| B2 | 0.627 |
| B3 | 1.25 |
| B4 | 1.07 |
| B5 | 1.3 |
| B6 | 0.86 |
| B7 | 1.09 |
| B8 | 1.94 |
| B9 | 1.41 |
| B10 | 0.961 |
| B11 | 0.343 |
| B12 | 2.63 |
| B13 | 1.17 |
| B14 | 1.18 |
